Results: PubChem BioAssay AID1963576 (National Center for Advancing Translational Sciences (NCATS), 2024)
About 60 (0.1%) of roughly 46,000 compounds were called active. Another 3% or so got no clear call; they are omitted. The call rests on the fitted dose curve; in most records, active means well fitted inhibition curve with a large enough effect; inconclusive means small, poorly fitted or top-dose-only effect; inactive means no such curve, though single readings can be large or run the other way. The list shows a part of the results.

Test: Primary qHTS assay for Inhibitors of ovarian cancer metastasis using an organotypic tumor microenvironment (TME) model. Further: nearly all actives have a fitted effect of over 65% in size.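 On activity change, negative = inhibition: plate controls were DMSO wells for no effect and tomatine positive control wells for full effect.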
Conditions: SKOV3ip1-GFP adhesion/invasion on 3D omental model, fluorescence; series mostly up to 45.8 µM; activity change, negative = inhibition: at the top concentration
Method in brief: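 Adhesion/invasion was scored as fixed GFP-labeled SKOV3ip1 cell counts (488/509 nm), normalized to DMSO and tomatine controls. Cancer cells in serum-free medium, with four compound doses (0.36-46 umol/L), sat 2 hr at RT then 16 hr at 37 C on a 48 hr fibroblast/mesothelial/ECM culture.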

outcome, inactive:
COc1ccc2c(c1)Cc1sc(NC(=O)c3ccccc3Br)nc1-2
CS(=O)(=O)NCC(c1ccco1)N1CCN(c2ccccc2)CC1 (stereo not given)
COc1ccc(N2Cc3cccc(C(=O)Nc4ccc(C(C)C)cc4)c3C2=O)cc1
COc1ccccc1CNc1cc(-c2ccccc2)nc2nncn12
CCN(C(=O)c1cc2c(Cl)nc3ccccc3c2s1)c1cccc(Cl)c1
COc1cc(NC(=O)CN(C)S(=O)(=O)c2ccc3[nH]c4c(c3c2)CCCC4)cc(OC)c1OC
Cc1cc(NC(=O)CSc2nc3c([nH]c4ccccc43)c(=O)n2-c2cccc(Cl)c2)no1
COc1ccccc1C(=O)NCc1ccc2c(c1)CCN2C(=O)c1cccc(C)c1
CCOC(=O)Cn1c(=O)oc2cc(S(=O)(=O)Nc3cc(OC)cc(OC)c3)ccc21
O=C(Nc1ccccc1F)C(Cc1ccccc1)n1cccc1 (stereo not given)
COc1ccc(-c2c3c(=O)n(C)c(=O)n(C)c3c3c(-c4ccccc4)nc4ccccc4n23)cc1
O=C(Nc1ccc2nc(SCC(=O)N3CCOCC3)sc2c1)c1ccc(F)cc1
Cc1ccc2[nH]c(=O)c3cc(C(=O)N4CCN(c5ccccc5)CC4)sc3c2c1
COC(=O)c1sccc1S(=O)(=O)N1CCN(c2ccccc2)CC1
CCc1nn(-c2ccccc2)c2nc(-c3ccccc3OC)c3cc(OC)c(OC)cc3c12
Cc1ccccc1NC(=O)c1ccc(F)c(S(=O)(=O)N(C)Cc2ccccc2)c1
Cc1cccc(NC(=O)CCCn2c(C)c3cnn(-c4ccccc4)c(=O)c3c2C)c1C
Cc1ccc(Cn2c(C(=O)O)c(CNCc3ccccc3Cl)c3ccc(C)cc32)cc1
Cc1oc2c(c(C)cc3oc(=O)c(CC(=O)NCCc4ccccc4F)c(C)c32)c1C
CCOC(=O)C1CCN(c2ncnc3c2c(-c2ccccc2)cn3-c2cccc(C)c2)CC1
O=C(CCSc1nc(-c2ccco2)cc(C(F)(F)F)n1)Nc1cccc(O)c1
Cc1ccc(C)n1-c1nnc(N2CCCC(C(=O)NCc3ccc(Cl)cc3)C2)s1 (stereo not given)
Cc1ccc(-c2nc3cc(C(C)C)ccc3o2)cc1NC(=O)c1cc2ccccc2o1
Cc1cn2c(=O)cc(COC(=O)c3cccc(NC(=O)COc4ccccc4Cl)c3)nc2s1
Cc1cccc(CSc2ncc(CO)n2Cc2ccc(F)cc2)c1

Activity change, negative = inhibition, inactive:
Cc1ccc(C)n1-c1nnc(N2CCC(C(=O)Nc3ccccc3Br)CC2)s1 -12.8%
CCCN1CCc2nc(N3CCN(CC)CC3)ncc2C1 1.79%
Cc1ccc(OCCn2c(CNc3cccc(C)c3)nc3ccccc32)cc1 5.76%
CCc1ccccc1N(C)C(=O)C1CCCN(c2ncnc3onc(-c4ccc(F)cc4)c23)C1 (stereo not given) 8.2%
CCCCOC(=O)c1ccc(NC(=O)c2cc(-c3ccccc3)on2)cc1 4.36%
CCOc1cccc(C(=O)Nc2c(C(=O)c3ccc(OC)cc3)oc3ccccc23)c1 8.54%
O=C(CN(c1ccc(Cl)c(C(F)(F)F)c1)S(=O)(=O)c1ccccc1)N1CCc2ccccc2C1 9.19%
Cc1ccc(NC(=O)c2sc(-n3nc(C)c(CCC(C)C)c3C)nc2C)cc1C 0.827%
Cc1nc2ccn(Cc3cccs3)c(=O)c2cc1C(=O)N1CCN(c2ccc(F)cc2)CC1 -8.34%
CN1c2cc(Cl)ccc2-c2nc(SCC(=O)Nc3ccc(F)cc3F)ncc2S1(=O)=O -6.91%
CCOC(=O)c1cnc2c(C)c(Cl)ccc2c1Nc1ccc(C)cc1C 2.82%
CC1=C(C(=O)Nc2cccnc2)C(c2ccc(F)cc2)n2nc(SCc3ccccc3F)nc2N1 (stereo not given) -5.97%
O=C(NC1CCCC1)c1ccc(CSc2nc3ccncc3n2Cc2ccccc2F)cc1 0.162%
CCOC(=O)N1CCc2c(sc(NCc3ccc(OCC)cc3)c2C(=O)Nc2ccc(OC)cc2OC)C1 0.319%
COc1ccc(OC2CCN(S(=O)(=O)c3ccc(OC)cc3)CC2)cc1 -18.2%
Clc1ccc(-c2noc3ncnc(NCCCN4CCN(c5ccccc5)CC4)c23)cc1 3.46%
CCn1cc(C(=O)O)c(=O)c2cc(F)c(N3CCNCC3)nc21 -31.7%
CCOC(=O)C1CCCN(C(=O)C2CCN(c3nnc(C)c4c(C)n(-c5ccccc5)nc34)CC2)C1 (stereo not given) 3.49%
COc1ccccc1C(=O)NCc1ccc2c(c1)CCN2C(=O)c1ccncc1 6.42%
CCc1ccc(CNC(=O)C(CC)n2ccc3cc(S(=O)(=O)N4CCCCC4)ccc32)cc1 (stereo not given) -3.09%
Cc1ccc(C)c(N2CCN(C(=O)C3CCN(S(=O)(=O)c4cn(C)cn4)CC3)CC2)c1 8.75%
CCc1ccccc1Nc1nn2c(=O)c3ccc(C(=O)NCc4cccs4)cc3nc2s1 -19.3%
COc1ccc(N2CCN(C(=O)C3CCN(S(=O)(=O)c4cnc[nH]4)CC3)CC2)cc1 -23.2%
Cc1cccc(C(=O)Nc2cccc(C(=O)OCc3cc(=O)n4c5c(sc4n3)CCCC5)c2)c1 -2.72%
CN1CCN(C(c2ccc(F)cc2)c2sc3nc(-c4ccco4)nn3c2O)CC1 (stereo not given) -5.96%
CCn1c(C)c(C)c2cc(C(=O)NCCc3cc(OC)c(OC)c(OC)c3)ccc21 -1.65%
CCc1ccc(S(=O)(=O)c2nnn3c2nc(NCc2cccs2)c2sccc23)cc1 23.4%
COc1ccc(Cn2c(C(=O)O)c(CNCc3cccs3)c3ccc(C)cc32)cc1 -20.3%
COc1cc(OC)cc(-c2nc3nc(C)c(CCC(=O)Nc4ccc(Cl)cc4)c(C)n3n2)c1 -8.56%
COc1cccc(C(=O)Nc2ccc3oc(-c4ccc5ccccc5c4)nc3c2)c1 -10.8%
Cc1cc(C)c(Nc2nn3c(=O)c4cc5c(cc4nc3s2)OCO5)c(C)c1 1.57%
CCN(CC)S(=O)(=O)c1ccc2c(c1)N(CC(=O)NCCCN1CCN(c3ccccc3F)CC1)C(=O)CO2 14.1%
Cc1cccc(C(=O)Nc2sc3c(c2C(=O)NCc2ccco2)CCCC3)c1 -6.58%
COc1cccc(NC(=O)NCc2ccc3c(c2)CCN3C(=O)c2ccccc2)c1 -4.02%
CCOc1ccc(CCNC(=O)CCc2c(C)nc3c4c(C)cc(C)nc4nn3c2C)cc1 -8.81%
COc1ccccc1C1C=C(c2ccc(F)cc2)Nc2nc(-c3ccc(Cl)cc3)nn21 (stereo not given) 2.76%
CCOC(=O)c1scc(-c2ccccc2)c1S(=O)(=O)Nc1ccccc1F -4.08%
CCCc1nn2c(=O)cc(COC(=O)c3cccc(NC(=O)COc4ccc(F)cc4)c3)nc2s1 5.87%
CC(C)c1ccc(C2N3CC4(C)CN2CC(c2ccccc2)(C3)C4=O)cc1 (stereo not given) 6.98%
CCc1ccc(NC(=O)c2cc(C(C)=O)n3ccccc23)cc1 -26.7%
O=C(Cn1c(=O)oc2cc(S(=O)(=O)N3CCCCC3)ccc21)Nc1cccc(Cl)c1 -10.8%
Cc1nc(-c2ccc(Cl)cc2)sc1CCNC(=O)C(=O)Nc1ccc(F)cc1F 3.72%
O=C(O)c1cc(NC2(c3ccccc3)C(=O)c3ccccc3C2=O)ccc1Cl 11.8%
Cc1cc(C)c(Cn2c3ccccc3c3cnn(CC(=O)NC4CCC(C)CC4)c(=O)c32)c(C)c1 (stereo not given) -10.4%
Cc1ccccc1-n1c(SCC(=O)Nc2ccc(Cl)cc2F)nnc1-c1cc2occc2n1C -7.93%
CCc1ccc(NC(=O)CN2CCN(Cc3ccccc3)S2(=O)=O)cc1 1.69%
Cc1ccc(N(CC(=O)NCCc2ccc(Cl)cc2)S(=O)(=O)N(C)C)cc1 6.15%
COc1cccc(NC(=O)CSc2nc3c(oc4ccccc43)c(=O)n2Cc2ccco2)c1 7.38%
O=C(Nc1ccc2oc(-c3cccnc3)nc2c1)c1cccc(Br)c1 0.173%
Cc1ccc(OCC(=O)Nc2ccc(S(=O)(=O)Nc3cc(C)nc(C)n3)cc2)c(Br)c1 27.2%
COc1ccc(C2=CC(c3ccc(F)cc3)n3ncc(C(=O)Nc4ccc(C)cc4)c3N2)cc1 (stereo not given) -12%
Cc1ccc(CN2CCc3nc(N4CCN(c5ncccn5)CC4)ncc3C2)cc1 -4.66%
CCc1ccc(CNC(=O)c2sc3ncccc3c2-n2c(C)ccc2C)cc1 -5.07%
O=C(Cn1ccn(-c2ccc(F)c(F)c2)c(=O)c1=O)Nc1ccccc1F 1.5%
CCOc1ccccc1CNS(=O)(=O)c1ccc2c(c1)CCCN2C(C)=O -3.41%
COc1cc(OC)cc(C(=O)Oc2c(Sc3ccccc3)c(C)nn2C(C)(C)C)c1 -5.12%
COc1ccccc1-c1nc2c(c(SCc3cccc(Cl)c3)n1)Cc1c(CO)cnc(C)c1O2 0.177%
CCOC(=O)c1ccccc1NC(=O)N1CCc2c(sc(C)c2CC)C1c1ccccc1 (stereo not given) -1.19%
Cc1cccc(NC(=O)C(=O)NCC(c2ccc3c(c2)OCO3)N2CCOCC2)c1C (stereo not given) -12.4%
COc1cc(-c2noc(CN3CCN(c4ccccc4)CC3)n2)cc(OC)c1OC -0.79%
CC(C)CCNC(=O)CCCN1C(=O)c2ccccc2Sc2ncccc21 -6.97%
Fc1ccc(C(c2ccc(F)cc2)N2CCN(CC=Cc3ccccc3)CC2)cc1 -7.14%
Cc1cc(C)c(NC(=O)C2CCN(c3nc4ccccc4[nH]3)CC2)c(C)c1 -0.759%
O=C(Nc1cccs1)Nc1cc(C(F)(F)F)ccc1Cl -28.6%
CN1CCN(C(CNC(=O)c2cccc(F)c2)c2ccc3c(c2)OCO3)CC1 (stereo not given) 2.66%
CCOc1ccc(-n2c(Cc3ccccc3)nnc2SCc2nc(-c3ccccc3OC)no2)cc1 5.95%
Cc1ccc2c(c1)-c1nc(-c3ccc(Cl)cc3)cc(-c3coc4ccccc4c3=O)c1CO2 9.65%
O=C(Nc1ccc2oc(-c3ccccc3F)nc2c1)c1ccccc1Cl -2.88%
Cc1cc(C)c2c(=O)cc(C(=O)Nc3sc4c(c3C(=O)NCc3ccccc3)CCCC4)oc2c1 -13%
CCCSc1ncc(Cl)c(C(=O)Nc2ccc(S(=O)(=O)Nc3ncccn3)cc2)n1 1.07%
